{"sequences": {"note": "Amino acid sequences for entries named in this document (tags omitted). A change or cut given only in a name is not applied to a line headed by its entry. Chains listed by the source or under a name are the forms on record and can include a tag or linker.", "UniProt Q5Y5T5": "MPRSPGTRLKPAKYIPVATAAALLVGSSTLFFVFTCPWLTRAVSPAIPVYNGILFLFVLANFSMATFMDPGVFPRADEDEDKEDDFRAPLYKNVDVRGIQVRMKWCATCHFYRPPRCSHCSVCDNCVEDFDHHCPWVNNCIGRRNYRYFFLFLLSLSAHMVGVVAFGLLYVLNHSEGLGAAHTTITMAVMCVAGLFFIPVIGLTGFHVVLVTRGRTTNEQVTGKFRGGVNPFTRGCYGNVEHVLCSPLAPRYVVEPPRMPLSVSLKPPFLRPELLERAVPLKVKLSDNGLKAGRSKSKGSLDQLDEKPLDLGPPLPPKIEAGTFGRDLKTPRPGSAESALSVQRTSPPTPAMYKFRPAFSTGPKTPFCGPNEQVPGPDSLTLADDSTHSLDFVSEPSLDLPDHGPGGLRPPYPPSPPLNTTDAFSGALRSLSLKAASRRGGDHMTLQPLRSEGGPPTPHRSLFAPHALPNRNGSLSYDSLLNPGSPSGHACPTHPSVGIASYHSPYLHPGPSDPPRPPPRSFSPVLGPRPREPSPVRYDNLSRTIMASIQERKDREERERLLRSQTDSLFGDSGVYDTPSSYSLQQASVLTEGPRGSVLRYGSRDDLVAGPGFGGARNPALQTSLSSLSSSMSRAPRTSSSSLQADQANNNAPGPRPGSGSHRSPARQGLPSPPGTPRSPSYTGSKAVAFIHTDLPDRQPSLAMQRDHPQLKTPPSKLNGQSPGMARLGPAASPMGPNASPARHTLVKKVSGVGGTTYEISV", "UniProt Q8VDZ4": "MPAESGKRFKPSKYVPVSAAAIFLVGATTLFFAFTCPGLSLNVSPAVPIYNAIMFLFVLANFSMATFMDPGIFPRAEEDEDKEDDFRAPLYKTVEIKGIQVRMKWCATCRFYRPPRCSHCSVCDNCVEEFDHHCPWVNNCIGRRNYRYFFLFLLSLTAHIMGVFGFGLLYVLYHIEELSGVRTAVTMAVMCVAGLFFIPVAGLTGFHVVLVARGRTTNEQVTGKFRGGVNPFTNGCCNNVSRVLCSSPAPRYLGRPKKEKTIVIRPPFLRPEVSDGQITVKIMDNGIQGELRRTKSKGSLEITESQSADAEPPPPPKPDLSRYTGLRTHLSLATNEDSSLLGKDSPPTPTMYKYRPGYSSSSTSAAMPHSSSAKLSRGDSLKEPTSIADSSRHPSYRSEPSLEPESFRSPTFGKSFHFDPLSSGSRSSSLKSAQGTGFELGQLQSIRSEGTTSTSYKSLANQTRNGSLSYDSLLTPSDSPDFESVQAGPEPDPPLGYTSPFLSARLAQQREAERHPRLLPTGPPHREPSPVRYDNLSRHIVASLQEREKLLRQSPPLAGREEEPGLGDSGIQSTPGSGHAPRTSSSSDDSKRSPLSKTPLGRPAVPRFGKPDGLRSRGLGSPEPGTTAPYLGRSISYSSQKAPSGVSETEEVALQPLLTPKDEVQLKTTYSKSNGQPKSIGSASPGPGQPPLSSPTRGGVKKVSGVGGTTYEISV", "HA-Zdhhc5^ANAA (mouse Zdhhc5 triple alanine mutant) (Q8VDZ4, form named)": "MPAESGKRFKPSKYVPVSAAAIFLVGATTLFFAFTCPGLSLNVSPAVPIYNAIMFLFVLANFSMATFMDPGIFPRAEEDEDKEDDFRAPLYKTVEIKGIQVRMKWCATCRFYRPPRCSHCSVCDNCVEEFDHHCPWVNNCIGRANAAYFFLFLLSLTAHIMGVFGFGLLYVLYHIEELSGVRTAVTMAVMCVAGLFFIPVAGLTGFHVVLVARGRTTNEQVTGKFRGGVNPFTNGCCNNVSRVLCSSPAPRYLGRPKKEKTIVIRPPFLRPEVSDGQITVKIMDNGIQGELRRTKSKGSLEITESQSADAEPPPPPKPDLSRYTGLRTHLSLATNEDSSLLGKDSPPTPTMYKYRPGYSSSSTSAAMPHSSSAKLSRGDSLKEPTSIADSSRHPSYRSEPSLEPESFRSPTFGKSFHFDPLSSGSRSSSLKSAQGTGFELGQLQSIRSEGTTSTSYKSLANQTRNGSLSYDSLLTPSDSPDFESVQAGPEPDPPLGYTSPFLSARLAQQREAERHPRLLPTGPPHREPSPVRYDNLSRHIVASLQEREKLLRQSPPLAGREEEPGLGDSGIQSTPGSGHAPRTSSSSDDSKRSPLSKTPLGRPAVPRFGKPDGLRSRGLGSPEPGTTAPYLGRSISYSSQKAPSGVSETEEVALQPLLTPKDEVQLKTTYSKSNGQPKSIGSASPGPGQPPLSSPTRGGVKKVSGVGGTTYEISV", "HA-Zdhhc5^RNAR (mouse Zdhhc5 Tyr146Ala) (Q8VDZ4, form named)": "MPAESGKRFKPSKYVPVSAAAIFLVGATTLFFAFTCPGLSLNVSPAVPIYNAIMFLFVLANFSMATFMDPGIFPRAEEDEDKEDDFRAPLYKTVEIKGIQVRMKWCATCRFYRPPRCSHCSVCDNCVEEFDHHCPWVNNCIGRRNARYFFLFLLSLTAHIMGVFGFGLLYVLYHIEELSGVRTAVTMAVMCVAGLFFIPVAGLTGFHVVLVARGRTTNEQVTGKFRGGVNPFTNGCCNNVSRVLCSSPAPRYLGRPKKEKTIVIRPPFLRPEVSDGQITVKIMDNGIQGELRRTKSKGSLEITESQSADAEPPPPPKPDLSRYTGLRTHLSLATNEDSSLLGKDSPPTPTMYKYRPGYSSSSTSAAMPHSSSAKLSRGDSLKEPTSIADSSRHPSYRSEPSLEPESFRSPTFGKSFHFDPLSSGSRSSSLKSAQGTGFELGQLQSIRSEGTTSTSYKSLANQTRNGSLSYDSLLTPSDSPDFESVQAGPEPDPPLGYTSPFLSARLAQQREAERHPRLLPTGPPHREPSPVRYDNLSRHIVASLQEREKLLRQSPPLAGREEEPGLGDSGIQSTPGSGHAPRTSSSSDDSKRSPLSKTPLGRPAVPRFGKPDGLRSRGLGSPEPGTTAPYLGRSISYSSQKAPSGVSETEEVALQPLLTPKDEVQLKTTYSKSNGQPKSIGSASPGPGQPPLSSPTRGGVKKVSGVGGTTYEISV", "UniProt P59267": "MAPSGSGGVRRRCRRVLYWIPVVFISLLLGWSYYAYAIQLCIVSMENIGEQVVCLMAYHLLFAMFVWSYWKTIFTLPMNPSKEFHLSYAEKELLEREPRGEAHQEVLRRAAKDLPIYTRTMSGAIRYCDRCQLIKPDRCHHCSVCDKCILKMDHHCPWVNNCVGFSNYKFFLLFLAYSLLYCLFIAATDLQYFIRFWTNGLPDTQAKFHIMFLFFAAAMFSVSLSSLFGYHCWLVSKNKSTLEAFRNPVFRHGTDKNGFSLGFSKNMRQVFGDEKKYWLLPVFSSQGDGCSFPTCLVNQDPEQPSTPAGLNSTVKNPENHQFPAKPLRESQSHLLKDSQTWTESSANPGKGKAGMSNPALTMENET", "UniProt Q7Z5G4": "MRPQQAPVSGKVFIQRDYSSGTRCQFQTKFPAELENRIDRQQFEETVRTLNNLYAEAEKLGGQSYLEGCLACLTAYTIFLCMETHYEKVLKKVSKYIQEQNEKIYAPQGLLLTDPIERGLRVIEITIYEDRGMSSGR"}, "source": "paper PMC12528901", "assay_in_all_cases": "co-IP; HA-tagged mouse Zdhhc proteins transfected into 293T ZDHHC5 KO and control cells; lysis in 50 mM Tris-HCl pH 7.4, 150 mM NaCl, 2 mM EDTA, 1% DDM; anti-HA magnetic beads overnight at 4 °C; washes in TBS with 0.5% DDM; blots for endogenous GOLGA7 or ZDHHC9", "key": {"[1]": {"molecular_target": "HA-tagged mouse Zdhhc8 (mouse) (UniProt Q5Y5T5)"}, "[2]": {"molecular_target": "HA-Zdhhc5^ANAA (mouse Zdhhc5 triple alanine mutant) (mouse) (UniProt Q8VDZ4)"}, "[3]": {"molecular_target": "T1, HA-tagged mouse Zdhhc7 (mouse) (UniProt Q91WU6)", "T1 sequence": "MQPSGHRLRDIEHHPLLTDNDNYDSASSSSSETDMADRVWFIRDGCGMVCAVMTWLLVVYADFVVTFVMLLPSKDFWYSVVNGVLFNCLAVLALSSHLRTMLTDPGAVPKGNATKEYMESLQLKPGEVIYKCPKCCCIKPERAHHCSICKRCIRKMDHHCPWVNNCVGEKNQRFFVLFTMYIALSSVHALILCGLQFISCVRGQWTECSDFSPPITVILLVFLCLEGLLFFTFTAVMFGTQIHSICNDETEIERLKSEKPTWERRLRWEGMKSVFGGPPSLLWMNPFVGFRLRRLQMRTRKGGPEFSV"}, "[4]": {"molecular_target": "HA-tagged mouse Zdhhc5, wild type (mouse) (UniProt Q8VDZ4)"}, "[5]": {"molecular_target": "T2, HA-tagged mouse Zdhhc21 (mouse) (UniProt Q9D270)", "T2 sequence": "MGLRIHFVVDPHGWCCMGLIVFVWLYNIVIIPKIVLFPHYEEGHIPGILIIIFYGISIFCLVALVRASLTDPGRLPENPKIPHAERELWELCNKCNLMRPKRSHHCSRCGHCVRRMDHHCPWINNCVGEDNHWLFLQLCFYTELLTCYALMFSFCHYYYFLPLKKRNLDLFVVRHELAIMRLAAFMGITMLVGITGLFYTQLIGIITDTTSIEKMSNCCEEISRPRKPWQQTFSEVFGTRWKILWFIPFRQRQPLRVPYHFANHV"}, "[6]": {"molecular_target": "T3, HA-tagged mouse Zdhhc15 (mouse) (UniProt Q8BGJ0)", "T3 sequence": "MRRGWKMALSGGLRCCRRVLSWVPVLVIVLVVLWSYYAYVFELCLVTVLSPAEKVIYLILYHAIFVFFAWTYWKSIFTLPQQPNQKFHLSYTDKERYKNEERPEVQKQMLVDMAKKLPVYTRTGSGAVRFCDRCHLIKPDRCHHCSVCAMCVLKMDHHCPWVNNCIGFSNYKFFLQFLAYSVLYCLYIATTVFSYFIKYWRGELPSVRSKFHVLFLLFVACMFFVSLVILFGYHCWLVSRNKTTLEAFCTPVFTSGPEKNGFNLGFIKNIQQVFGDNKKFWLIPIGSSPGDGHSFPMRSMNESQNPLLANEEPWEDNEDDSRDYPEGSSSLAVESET"}, "[7]": {"molecular_target": "HA-tagged mouse Zdhhc2 (mouse) (UniProt P59267)"}, "[8]": {"molecular_target": "T4, HA-tagged mouse Zdhhc25 (mouse) (UniProt Q810M4)", "T4 sequence": "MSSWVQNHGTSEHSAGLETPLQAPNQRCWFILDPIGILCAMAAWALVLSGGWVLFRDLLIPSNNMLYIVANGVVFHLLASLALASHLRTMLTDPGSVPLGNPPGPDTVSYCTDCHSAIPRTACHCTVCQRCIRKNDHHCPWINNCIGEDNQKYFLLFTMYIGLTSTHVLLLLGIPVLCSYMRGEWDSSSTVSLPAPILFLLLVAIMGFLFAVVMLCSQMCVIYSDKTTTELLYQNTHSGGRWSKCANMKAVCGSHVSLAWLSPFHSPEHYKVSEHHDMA"}, "[9]": {"molecular_target": "HA-Zdhhc5^RNAR (mouse Zdhhc5 Tyr146Ala) (mouse) (UniProt Q8VDZ4)"}}, "note": "These are yes or no findings as the source states them, for the method shown. Binding seen in cells or lysates may run through a third protein. Some binding calls cover weakened binding; strength is not graded here. For part of these data: Sequences can lack the tags named with a protein."}
{"substance": "endogenous human golgin A7 (GOLGA7) (from UniProt Q7Z5G4 1-137)", "values": [{"measurement": "binding", "setting": "[1]", "result": "binds"}, {"measurement": "binding", "setting": "[2]", "result": "no binding"}, {"measurement": "binding", "setting": "[3]", "result": "no binding"}, {"measurement": "binding", "setting": "[4]", "result": "binds"}, {"measurement": "binding", "setting": "[5]", "result": "no binding"}, {"measurement": "binding", "setting": "[6]", "result": "no binding"}, {"measurement": "binding", "setting": "[7]", "result": "no binding"}, {"measurement": "binding", "setting": "[8]", "result": "no binding"}, {"measurement": "binding", "setting": "[9]", "result": "binds"}]}
